Hit rate of the full screen: of about 150,000 compounds, about 540 (0.36%) showed an effect of 50% or more. This is one part of the list.
tested on: Plasmodium falciparum; experiment: Primary screen in NF54 nanoGlo assay, in single point, at 2uM, 72h; a lower Z score goes with more inhibition; assay type: functional, Erythrocyte; conditions: timepoint 72 hour

| SMILES | % Inhibition | Z score |
| --- | --- | --- |
| CCc1nc(CN[C@@H](C)c2ccc(-n3cccn3)cc2)no1 | -13% | 1.71 |
| O=S(=O)(NCCOCC(F)(F)F)c1cc(F)c(F)c(F)c1 | -7% | 1.09 |
| CC(C)(O)Cn1nc(CC(N)=O)nc1-c1cc2c([nH]c1=O)CCCC2 | -10% | 1.42 |
| COc1ccc(OCC=CCN2CCC[C@H](C)C2)cc1 | 14% | -2.51 |
| CC(C)N(C[C@H]1COc2ccccc2O1)C(=O)c1cc2n(n1)CCCNC2 | 20% | -2.52 |
| Cc1c(-c2noc(C(=O)N3CCC(Cc4ccccc4)CC3)n2)oc2c(C)cccc12 | -7% | 0.89 |
| NC(=O)CC1COCCN1C(=O)C1CC12CCOc1ccccc12 (stereo not drawn) | 16% | -1.97 |
| COc1cccc(C2CC2CNC(C)=O)c1 (stereo not drawn) | -12% | 1.55 |
| CC[C@]1(CO)CCCN(Cc2nc(-c3ccccc3)cs2)C1 | -1% | 0.15 |
| CCN(CCOc1cccc(Cl)c1)C(=O)[C@@H](C)Cn1cncn1 | -8% | 1.51 |
| CC(NC(=O)N(C)Cc1nc2ccccc2c(=O)[nH]1)C1CCCO1 (stereo not drawn) | -3% | 0.64 |
| Cc1cc(N[C@H]2CCCCNC2=O)n2nc(C)cc2n1 | -3% | 0.31 |
| Cc1c(NC(=O)c2ccco2)c(=O)n(-c2ccccc2)n1C | -10% | 1.04 |
| CC[C@H](NC(=O)c1nnc2n1CCCC2)c1cc(C)ccn1 | -2% | 0.39 |
| N#Cc1ccccc1CN1C(=O)NC2(Cc3ccccc3C2)C1=O | -3% | 0.48 |
| CCCn1nc(-c2ccccc2OC)cc1C(=O)NCC1CC1 | -12% | 1.56 |
| COCCS(=O)(=O)NC(=O)C1CC12CCc1ccccc12 (stereo not drawn) | -9% | 1.62 |
| CN(Cc1ccc(-n2cccn2)cc1)C(=O)c1ccc(C#N)nc1 | -9% | 0.96 |
| O=S(=O)(CCC1CCCC1)N1CCO[C@H](c2nccs2)C1 | -12% | 0.99 |
| CCc1noc(COCC(=O)N2c3ccccc3CC2(C)C)n1 | 2% | -0.23 |
| Cc1ccc(Cl)cc1N1CCN(C(=O)c2ccc(CS(=O)(=O)c3ccc(Br)cc3)o2)CC1 | -16% | 2.05 |
| COc1ccc(NC(=O)C(=O)N[C@@H](C)c2ccccc2)cc1N1CCCCS1(=O)=O | -8% | 1.02 |
| CC1(CNC(=O)CC(=O)NCC(F)(F)F)CCCCCC1 | -2% | 0.44 |
| CCc1nn(C)c(Cl)c1CN1CCCn2nc(CO)cc2C1 | 3% | -0.51 |
| C[C@H]1[C@@H](NC(=O)c2c[nH]c(=O)c(Br)c2)CCS1(=O)=O | 6% | -1.13 |
| Cc1noc(Cn2cnc3ccccc3c2=O)n1 | 11% | -1.98 |
| CCCc1cc(NC(=O)C2(OCC)CCCC2)n[nH]1 | 5% | -0.78 |

| SMILES | % Inhibition | Z score |
| --- | --- | --- |
| Cc1nn(C(F)F)cc1-c1cccc(C(=O)NCCn2nc(C)c(C)c2C)c1 | 9% | -1.71 |
| CN(C(=O)Cn1nnc2ccccc2c1=O)C1CCCCCCC1 | -3% | 0.26 |
| Cc1nc(C(=O)Nc2ccccc2Oc2ccccc2)co1 | 1% | -0.17 |
| Cc1nc(CN(C(=O)[C@H](C)n2cncn2)c2ccc(F)cc2)cs1 | -4% | 0.34 |
| Cc1c(Cl)cccc1NS(=O)(=O)c1cc(-c2nc(C(C)C)cs2)cs1 | -16% | 2.32 |
| Cc1oc(-n2c(C)ccc2C)c(C#N)c1C | -5% | 0.73 |
| COc1ccc(CC(=O)N2CCc3nc(N4CCN(C)CC4)nc(Oc4ccc(F)cc4F)c3C2)cc1 | -15% | 2.48 |
| Cc1cc(CN2CC[C@H](NC(=O)c3ccncc3)[C@@H](O)C2)ccc1F | -7% | 0.95 |
| CCOc1ccccc1CCNC(=O)c1cn2c(n1)CNCC2 | -18% | 2.28 |
| COc1cccc(C2C(C(=O)NC3CC4CCC3C4)c3ccccc3C(=O)N2C2CC2)c1 (stereo not drawn) | -4% | 0.53 |
| Cc1cc(C(=O)CN2C(=O)NC3(CCCCCCC3)C2=O)c(C)n1-c1ccon1 | -2% | 0.31 |
| Cc1cnccc1CN(C)Cc1noc(C2CCCC2)n1 | -1% | 0.14 |
| O=c1cc2c(n[nH]1)-c1ccccc1OC2 | -5% | 0.71 |
| COc1ccc(CN(C)Cc2c(C)noc2C)c(OC[C@@H](O)CN2CCCC2)c1 | 7% | -1.18 |
| CC(=O)Nc1nc(CN2CCc3c(ncn3C)C2)cs1 | 12% | -1.71 |
| CCOC(=O)[C@H]1CCCN(C(=O)c2nn(-c3ccccc3F)c(=O)n(CC)c2=O)C1 | -11% | 1.52 |
| Cc1ccc(NC(=O)[C@H]2CCCN(S(=O)(=O)c3ccc4c(c3)NC(=O)CO4)C2)c(Cl)c1 | -2% | 0.38 |
| CC(C)CC(=O)Nc1ccc(-n2nc(OCc3ccc(F)cc3)nc2-c2cccc(F)c2)cc1 | -4% | 0.67 |
| O=C(c1cnc2ccc(F)cc2c1N1CCC(Cc2ccccc2)CC1)N1CCCC1 | 32% | -4.13 |
| Cc1cc(CNc2ccc(Br)cc2CO)on1 | -3% | 0.52 |
| CC(C)(C)n1ncn(CC(=O)N2CCc3ccccc3C2)c1=O | -19% | 1.59 |
| COc1cc2ccc3c(CCN(C)C(C)=O)cc(OC)c(OC)c3c2cc1OC | 5% | -0.6 |
| C1CCN(Cc2n[nH]c3c2COCC3)C1 | -5% | 0.51 |
| COC1CCCC1C1COCCN1Cc1cc(C(=O)O)sc1C (stereo not drawn) | -4% | 0.4 |
| COC(=O)[C@@H]1C[C@H](O)CCN1S(=O)(=O)c1cccc(OC)c1 | -5% | 0.91 |
| Cc1cc(C(=O)NCC2(c3ccccc3Cl)CC2)nc2nc(O)[nH]c(=O)c12 | -5% | 0.61 |
| CC1=C(C)CN(S(=O)(=O)c2c[nH]c3ncncc23)CC1 | -9% | 1.27 |

From ChEMBL document CHEMBL4888484, “Replenishing the malaria drug discovery pipeline: Screening and hit evaluation of the MMV Hit Generation Library 1 (HGL1) against asexual blood stage Plasmodium falciparum ,using a nano luciferase reporter read-out” (2022)
